Screen size: about 150,000 compounds; about 540 (0.36%) showed an effect of 50% or more. The list shows a part of the results.
The molecules below were run on Plasmodium falciparum (assay: Primary screen in NF54 nanoGlo assay, in single point, at 2uM, 72h; a lower Z score goes with more inhibition). Settings: timepoint 72 hour.
Type: functional, Erythrocyte
For `CCc1onc(C)c1NC(=O)NCC(F)(F)c1cccc(F)c1`, the “% Inhibition” value was -2% and the Z score was 0.34.
In the case of `CCC1(c2nc(Cc3noc(C)n3)no2)CCCC1`, the “% Inhibition” value was -2% and the Z score was 0.31.
With `Cc1ccc(Cl)cc1-n1c2c(cc(C#N)c1=O)C(=O)C[C@H](c1ccccc1)C2` the “% Inhibition” value was 0% and the Z score was -0.05.
With `CCc1nc(NC(=O)c2cccc(CN3CC[C@H](O)C3)c2)nn1C` the “% Inhibition” value was -3% and the Z score was 0.29.
With `Cc1ccc(OCC(=O)N(C)[C@@H](C)Cc2cnccn2)cc1C` the “% Inhibition” value was -1% and the Z score was 0.23.
In the case of `COC(C)(C)c1nsc(NCC23COCCN2CCOC3)n1`, the “% Inhibition” value was -6% and the Z score was 1.15.
For `O=C(NC1CCC(O)CC1)NC1CCN(Cc2ccccc2)CC1` (stereo not drawn), the “% Inhibition” value was -6% and the Z score was 0.87.
For `O=C(OCc1nc(-c2ccccc2)cs1)c1ccc2nncn2c1`, the “% Inhibition” value was -7% and the Z score was 1.
For `O=S(=O)(c1ccc2c(c1)CCO2)N1CC[C@H](Oc2cnccn2)C1`, the “% Inhibition” value was -11% and the Z score was 1.24.
With `O=C(Cc1ccc(F)cc1Cl)N[C@@H](Cc1ccncc1)C1CC(O)C1` (stereo partly drawn) the “% Inhibition” value was -6% and the Z score was 1.08.
In the case of `Cn1cncc1Cc1noc([C@@]23C[C@@H]2COC32CCC2)n1`, the “% Inhibition” value was -6% and the Z score was 0.97.
For `O=C(NCC1CC1)Nc1cccc(-c2cn[nH]c2)c1`, the “% Inhibition” value was -6% and the Z score was 0.88.
With `Cc1noc(C)c1CC(=O)N1C[C@H]2C[C@H](C1)[C@H]1CCCC(=O)N1C2` the “% Inhibition” value was -2% and the Z score was 0.4.
For `O=C(c1n[nH]c2ccccc12)N1CC[C@H](O)CC12CCC2`, the “% Inhibition” value was 1% and the Z score was -0.24.
With `CC(C)C[C@@H](CNC(=O)c1cccc(F)c1Cl)C(=O)O` the “% Inhibition” value was -3% and the Z score was 0.23.
In the case of `COc1cccc(CN/C(=N\c2ccc(C(=O)O)cc2)N2CCN(c3ncccn3)CC2)c1`, the “% Inhibition” value was 6% and the Z score was -1.12.
In the case of `N#Cc1ccc(N2C[C@H]3CC[C@@H](C2)N(Cc2cscn2)C3=O)nc1`, the “% Inhibition” value was -21% and the Z score was 1.91.
`Cc1ccc(C(=O)N2CC[C@H]3[C@H](CCC(=O)N3CC(C)C)C2)c(=O)[nH]1` was tested, and the “% Inhibition” value was 8% and the Z score was -1.3.
For `CC(=O)n1cc2cc(Br)cc(C)c2n1`, the “% Inhibition” value was -4% and the Z score was 0.46.
With `COc1ccc(NC(=O)N2CCC(c3cc(O)nc(C)n3)CC2)cc1` the “% Inhibition” value was -5% and the Z score was 0.8.
With `COc1c(C(=O)Nc2cccc(F)c2)oc2ccc(NC(=O)c3cccc(C)c3)cc12` the “% Inhibition” value was -19% and the Z score was 2.23.
For `CN(CCNC(=O)C1CCN(c2nc3cccnc3s2)CC1)C1CCCCC1`, the “% Inhibition” value was -24% and the Z score was 2.14.
With `O=C(OCc1nc2cc(C(F)(F)F)ccc2o1)c1cccnc1` the “% Inhibition” value was -14% and the Z score was 1.76.
With `COc1cc(Cl)c(C)cc1-n1ccnc(NC(=O)c2cccc(F)c2)c1=O` the “% Inhibition” value was -12% and the Z score was 1.59.
For `Cc1ccccc1S(=O)(=O)Nc1nn(C)c2cc(C)n(C)c(=O)c12`, the “% Inhibition” value was -14% and the Z score was 1.82.
With `CCn1cc(S(=O)(=O)N2CCN(CC(=O)NC3CCCCC3)CC2)c(C)n1` the “% Inhibition” value was 1% and the Z score was -0.13.
For `Cn1nc(C(=O)NC2CCCCC2)c2c1-c1ccccc1CC2`, the “% Inhibition” value was 7% and the Z score was -1.13.
With `COc1ccc(-c2cc(C(F)(F)F)nn2-c2nc(C(=O)O)cs2)cc1` the “% Inhibition” value was -28% and the Z score was 3.28.
With `Cc1cc(CC(=O)N[C@H]2CCN(c3ccc(Cl)c(F)c3)C2)n[nH]1` the “% Inhibition” value was 4% and the Z score was -0.33.
In the case of `Cc1cc(C)c(C)c(OCc2nc(CN(C(=O)c3ccco3)C(C)C)cs2)c1`, the “% Inhibition” value was -10% and the Z score was 1.31.
For `NC(=O)C1CCCC1NC(=O)CCc1cccnc1` (stereo not drawn), the “% Inhibition” value was 0% and the Z score was 0.03.
In the case of `Cc1cnccc1CN(C)C(=O)Cn1nnnc1CN1C[C@@H](C)O[C@@H](C)C1`, the “% Inhibition” value was -8% and the Z score was 0.8.
In the case of `Cc1cc(C)cc(NC(=O)NC2CCN(c3cnccn3)CC2)c1`, the “% Inhibition” value was -10% and the Z score was 1.25.
`CCN1CCN(c2ccc(NC(=O)[C@@H](NC(=O)c3ccc(Cl)cc3)C(C)C)cc2C)CC1` was tested, and the “% Inhibition” value was 5% and the Z score was -0.9.
In the case of `C[C@H](NC(=O)c1cc(=O)n(C)cc1Br)c1nc[nH]n1`, the “% Inhibition” value was -6% and the Z score was 1.05.
With `OCc1ccnc(-c2cc(O)cc(CC[C@H]3CCCCN3)c2)c1` the “% Inhibition” value was -3% and the Z score was 0.48.
In the case of `O=C(Nc1cc(C2CC2)n[nH]1)C1CCCCCC1`, the “% Inhibition” value was -24% and the Z score was 2.83.
`O=C(COC[C@H]1CCCO1)NCc1nc2ccccc2s1` was tested, and the “% Inhibition” value was 1% and the Z score was -0.26.
With `CNS(=O)(=O)c1ccc(S(=O)(=O)NC)n1-c1c(Cl)cc(C(F)(F)F)cc1Cl` the “% Inhibition” value was -10% and the Z score was 1.19.
With `CN1CC2(CCN(Cc3cccs3)CC2)C[C@H]1C(=O)Nc1ccccc1` the “% Inhibition” value was -7% and the Z score was 0.95.
In the case of `Cc1cccc(N2CCN(C(=O)c3nc(Cn4nc(-c5ccc(C)c(C)c5)ccc4=O)no3)C[C@@H]2C)c1`, the “% Inhibition” value was -12% and the Z score was 1.73.
In the case of `CN1CCC2(CCN(Cc3cc(-c4ccccc4)on3)CC2)C1=O`, the “% Inhibition” value was -11% and the Z score was 1.76.
In the case of `Cc1nc(C)c(C(=O)N[C@@]2(C)CCS(=O)(=O)C2)s1`, the “% Inhibition” value was -3% and the Z score was 0.41.
With `CNC(=O)[C@@H]1CN(Cc2c(-c3ccc(Cl)cc3)nc3sccn23)CCO1` the “% Inhibition” value was -13% and the Z score was 1.3.
In the case of `COCCOC1CCC(C(=O)Nc2cnc(C)s2)CC1` (stereo not drawn), the “% Inhibition” value was 0% and the Z score was -0.03.
For `COc1cc(C(=O)N2CCn3cncc3C2)ccn1`, the “% Inhibition” value was -11% and the Z score was 1.43.
`Cc1ccc(CC(=O)N[C@H](CO)CC(C)C)cc1O` was tested, and the “% Inhibition” value was -12% and the Z score was 1.67.
For `COc1ccccc1C(=O)Nc1c(C(=O)N2CCCCCC2)oc2ccccc12`, the “% Inhibition” value was -7% and the Z score was 0.68.
`Cc1ncc([C@H](C)NCc2cc3c(cc2OC(F)F)OCO3)s1` was tested, and the “% Inhibition” value was -6% and the Z score was 0.8.
For `Cc1ccc(-c2cc3c(N4CCN(Cc5ccccc5)CC4)nccn3n2)cc1C`, the “% Inhibition” value was -10% and the Z score was 1.71.
For `CCOCCCNC(=O)CCC(=O)N1C[C@@H]2CCCN2c2ccccc21`, the “% Inhibition” value was 5% and the Z score was -0.91.
For `Cc1nc(O)cc(C2CCN(Cc3[nH]nc(C)c3Cl)CC2)n1`, the “% Inhibition” value was 3% and the Z score was -0.46.
In the case of `CC(C)C(NC(=O)C(O)c1cnn(C)c1)c1ccc(Cl)cc1F` (stereo not drawn), the “% Inhibition” value was -8% and the Z score was 0.83.
In the case of `C[C@H]1c2ccccc2CCN1C(=O)NCc1ncccc1S(C)(=O)=O`, the “% Inhibition” value was -1% and the Z score was 0.27.
For `Cc1ccc(N2CCN(c3nccn4c(=O)n(CC(=O)NCCCc5ccccc5)nc34)CC2)cc1`, the “% Inhibition” value was -18% and the Z score was 1.77.
With `COc1cccc(OC)c1-c1cncc(C(=O)NCC2CC2)c1` the “% Inhibition” value was -9% and the Z score was 1.48.
For `c1cnc(N2CCN(Cc3noc([C@@H]4CCCO4)n3)CC2)nc1`, the “% Inhibition” value was -6% and the Z score was 1.22.
For `CC(OCC1CC1)C(=O)NCC(C)S(N)(=O)=O` (stereo not drawn), the “% Inhibition” value was -15% and the Z score was 1.54.
For `COc1ccc(S(=O)(=O)N2CCN(S(=O)(=O)c3ccc(OC)cc3)C2)cc1`, the “% Inhibition” value was 33% and the Z score was -4.2.
With `CCn1cc(C(=O)N2CCNC(=O)[C@@H]2Cc2ccccc2)c(C)n1` the “% Inhibition” value was -10% and the Z score was 1.
With `O=C(Cc1csc(-c2cccnc2)n1)NCc1cccnc1` the “% Inhibition” value was 11% and the Z score was -1.54.
With `O=C(Nc1ccc2c(c1)OCO2)C1CCN(C(=O)c2oc3ccccc3c2COc2ccccc2)CC1` the “% Inhibition” value was -3% and the Z score was 0.39.
In the case of `Cc1ccn(CCn2ccc(-c3cccc(-c4cnccc4C)c3)n2)n1`, the “% Inhibition” value was -7% and the Z score was 0.61.
In the case of `CCCCN(C1CCCCCC1)S(=O)(=O)N1CCC[C@@H]1COC`, the “% Inhibition” value was 3% and the Z score was -0.54.
For `Cc1c(Cl)cncc1NC(=O)N1CCN2C(=O)OCC[C@H]2C1`, the “% Inhibition” value was -3% and the Z score was 0.61.
With `CC(=O)Nc1ccc(NC(=O)c2cn3c(n2)COCC3)cc1` the “% Inhibition” value was -10% and the Z score was 1.56.
With `O=C(CCc1c[nH]c2ccccc12)N1CCN(S(=O)(=O)c2ccc3c(c2)CCCC3)CC1` the “% Inhibition” value was 2% and the Z score was -0.23.
With `COc1cc(NS(=O)(=O)NCc2ccccc2)cc(OC)c1` the “% Inhibition” value was 7% and the Z score was -0.94.
`COc1ncc(NC(=O)N[C@H]2C[C@@H](CO)C2)c(C)c1Br` was tested, and the “% Inhibition” value was -16% and the Z score was 3.11.
For `CCCc1nc(C)c(CN[C@H](c2ccccc2)C2(CO)CCC2)o1`, the “% Inhibition” value was -5% and the Z score was 0.97.
With `CCn1nccc1C(=O)N1CCC[C@H]1c1cc(C(C)C)no1` the “% Inhibition” value was -12% and the Z score was 1.6.
In the case of `C1CC2OC1CC2Nc1nc(C2CC2)no1` (stereo not drawn), the “% Inhibition” value was 0% and the Z score was -0.02.
`COc1ccc2[nH]c(C(=O)Nc3cc(NC(=O)C4CCCC4)ccc3C)c(C)c2c1` was tested, and the “% Inhibition” value was -7% and the Z score was 1.26.
With `COc1ccc(NS(=O)(=O)c2c(C)noc2C)cn1` the “% Inhibition” value was 3% and the Z score was -0.47.
With `CC1CN(CCNC(C)c2ccc(S(C)(=O)=O)c(F)c2)CCO1` (stereo not drawn) the “% Inhibition” value was -2% and the Z score was 0.21.
For `CN(C)c1ncc(CN2CCC(Cc3ccccc3)CC2)s1`, the “% Inhibition” value was -4% and the Z score was 0.5.
`CCCOc1ccc(C2c3c(-c4ccc(C)cc4)nn(C4CCS(=O)(=O)C4)c3C(=O)N2Cc2ccccc2)cc1` (stereo not drawn) was tested, and the “% Inhibition” value was 1% and the Z score was -0.07.
For `CN(C[C@H]1CCCCO1)C(=O)c1scc2c1CCCC2`, the “% Inhibition” value was -16% and the Z score was 1.72.
For `Clc1ccccc1[C@H]1C[C@@H](c2ccccc2)Nc2nnnn21`, the “% Inhibition” value was -11% and the Z score was 1.42.
For `COc1ccccc1N1CCN(C(=O)C2CC3CCC2C3)CC1` (stereo not drawn), the “% Inhibition” value was 2% and the Z score was -0.24.
`CCO[C@H]1COC[C@@H]1NC(=O)N1CCC(COc2ccc(OC)cc2)CC1` was tested, and the “% Inhibition” value was -2% and the Z score was 0.33.
For `CN(C)C(=O)NC1CCC(C(F)F)CC1` (stereo not drawn), the “% Inhibition” value was -11% and the Z score was 1.43.
For `CCOc1ccc(NC(=O)CCCc2nc(-c3cc4ccc(C)cc4nc3O)no2)cc1`, the “% Inhibition” value was -11% and the Z score was 2.08.
`Cc1nn(C)c(C)c1CC(=O)N[C@@H](C)c1ccc(Cl)cn1` was tested, and the “% Inhibition” value was -8% and the Z score was 1.32.

From ChEMBL document CHEMBL4888484, “Replenishing the malaria drug discovery pipeline: Screening and hit evaluation of the MMV Hit Generation Library 1 (HGL1) against asexual blood stage Plasmodium falciparum ,using a nano luciferase reporter read-out” (2022)
